Results from the supplement of paper PMC7826260.
Some of the results follow. Viral Rep nickase domains cut single-stranded DNA in vitro at 3 µM enzyme and 37 °C for 1 h; the strands have 90 letters, of which the middle is given. Values are log2 of uncut reads against the no-enzyme pool; strong cutting gives strongly negative numbers. There is no active / inactive call. Because reads are shares of a total, they shift together; values above 0 arise when much of the pool is cut.

Key:
Experiment in all cases: uncleaved DNA left, log2 of reads against the no-enzyme library (log2 ratio); higher = less cleavage (more negative = more Rep cleavage of the k-mer); sequences stand for … in CTCGTCCG…ACCGGAGA
[1] = test system: T1, Rep nickase domain of Muscovy duck circovirus
T1 sequence (residues 1-111 of Rep, tag left off): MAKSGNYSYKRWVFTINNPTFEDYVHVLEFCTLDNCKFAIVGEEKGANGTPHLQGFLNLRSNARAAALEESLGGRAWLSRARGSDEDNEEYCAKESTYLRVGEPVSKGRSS
Procedure: (§1)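 A pool of 90-nt single-stranded DNAs with seven random bases just before the constant AC of the nick site (name = the seven bases) was cut by 3 µM recombinant His6-SUMO-tagged Rep nickase domain (300 nM DNA, 50 mM HEPES pH 8.0, 50 mM NaCl, 1 mM MnCl2, 1 h, 37 °C, three replicates). Uncut DNA was amplified and sequenced.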

[2] = test system: T2, Rep nickase domain of banana bunchy top virus
T2 sequence (residues 1-94 of Rep, tag left off): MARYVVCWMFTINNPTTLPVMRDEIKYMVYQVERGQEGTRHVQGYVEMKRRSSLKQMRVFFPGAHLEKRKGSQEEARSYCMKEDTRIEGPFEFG
Procedure: as §1

[3] = test system: T3, Rep nickase domain of cabbage leaf curl virus
T3 sequence (residues 1-116 of Rep, tag left off): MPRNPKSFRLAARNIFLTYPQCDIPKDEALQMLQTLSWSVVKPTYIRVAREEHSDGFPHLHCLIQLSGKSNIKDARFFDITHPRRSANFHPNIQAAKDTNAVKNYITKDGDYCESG
Procedure: as §1

[4] = test system: T4, Rep nickase domain of chickpea chlorotic dwarf virus
T4 sequence (residues 1-124 of Rep, tag left off): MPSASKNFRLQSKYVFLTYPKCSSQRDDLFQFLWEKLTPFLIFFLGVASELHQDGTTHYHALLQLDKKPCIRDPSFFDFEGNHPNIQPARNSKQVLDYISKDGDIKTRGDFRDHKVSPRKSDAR
Procedure: as §1

[5] = test system: T5, Rep nickase domain of faba bean necrotic yellows virus
T5 sequence (residues 1-98 of Rep, tag left off): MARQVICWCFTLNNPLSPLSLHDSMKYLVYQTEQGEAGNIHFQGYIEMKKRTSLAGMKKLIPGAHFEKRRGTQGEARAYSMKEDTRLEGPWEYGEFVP
Procedure: as §1

[6] = test system: T6, Rep nickase domain of maize striate mosaic virus
T6 sequence (residues 1-117 of Rep, tag left off): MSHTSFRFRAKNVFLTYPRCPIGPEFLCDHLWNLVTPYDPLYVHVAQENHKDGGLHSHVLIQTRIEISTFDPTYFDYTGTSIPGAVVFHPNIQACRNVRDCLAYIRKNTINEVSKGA
Procedure: as §1

[7] = test system: T7, Rep nickase domain of porcine circovirus 2
T7 sequence (residues 2-116 of Rep, tag left off): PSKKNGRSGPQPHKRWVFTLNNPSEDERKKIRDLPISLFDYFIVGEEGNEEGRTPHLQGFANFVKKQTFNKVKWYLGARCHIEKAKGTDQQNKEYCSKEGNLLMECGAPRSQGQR
Procedure: as §1

[8] = test system: T8, Rep nickase domain of tomato golden mosaic virus
T8 sequence (residues 1-124 of Rep, tag left off): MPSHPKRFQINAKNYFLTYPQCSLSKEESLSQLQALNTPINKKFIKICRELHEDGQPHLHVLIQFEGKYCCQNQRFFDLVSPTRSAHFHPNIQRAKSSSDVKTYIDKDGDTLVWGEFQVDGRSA
Procedure: as §1

[9] = test system: T9, Rep nickase domain of tomato yellow leaf curl virus
T9 sequence (residues 1-136 of Rep, tag left off): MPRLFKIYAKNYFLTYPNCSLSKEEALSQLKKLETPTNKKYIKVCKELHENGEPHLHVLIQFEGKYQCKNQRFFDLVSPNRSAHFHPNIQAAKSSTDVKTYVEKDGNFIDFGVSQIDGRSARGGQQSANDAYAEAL
Procedure: as §1

[10] = test system: T10, Rep nickase domain of wheat dwarf virus
T10 sequence (residues 1-137 of Rep, tag left off): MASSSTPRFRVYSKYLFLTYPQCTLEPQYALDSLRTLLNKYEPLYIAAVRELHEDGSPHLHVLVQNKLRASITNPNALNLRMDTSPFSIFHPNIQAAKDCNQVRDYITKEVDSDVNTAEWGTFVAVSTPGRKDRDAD
Procedure: as §1

| Sequence | uncleaved DNA left (log2) [1] | uncleaved DNA left (log2) [2] | uncleaved DNA left (log2) [3] | uncleaved DNA left (log2) [4] | uncleaved DNA left (log2) [5] | uncleaved DNA left (log2) [6] | uncleaved DNA left (log2) [7] | uncleaved DNA left (log2) [8] | uncleaved DNA left (log2) [9] | uncleaved DNA left (log2) [10] |
| --- | --- | --- | --- | --- | --- | --- | --- | --- | --- | --- |
| TCTACGC | -0.0513 | -0.102 | -0.0237 | -0.685 | -0.0297 | -0.409 | -0.053 | -0.0999 | -0.0967 | -0.155 |
| TCTTCAC | -0.0713 | -0.0813 | -0.00926 | -0.409 | -0.0121 | -0.598 | -0.0788 | -0.0709 | 0.00016 | -0.141 |
| CAGGAAT | -0.00447 | 0.185 | 0.308 | 1.6 | -0.118 | 1.98 | 0.173 | 0.13 | -0.0457 | 0.219 |
| CACTGGA | -0.0194 | -0.101 | -0.0339 | 0.08 | 0.0676 | -0.0902 | -0.991 | 0.0243 | -0.0395 | 0.0793 |
| GGCGAAC | -0.0187 | 0.0463 | 0.378 | 1.08 | 0.0996 | 1.41 | 0.103 | 0.0281 | -0.09 | 0.0585 |
| GGTAGGC | -0.0436 | -0.0142 | 0.522 | 1.3 | -0.0445 | 1.65 | 0.0964 | -0.0787 | -0.0576 | -0.0244 |
| TTATGTC | -0.0156 | -0.155 | -0.0996 | -0.451 | -0.0367 | -0.998 | -0.211 | -0.16 | -0.0431 | -0.0941 |
| ATCGCAA | 0.125 | -0.00198 | -0.15 | -0.235 | 0.0917 | -0.89 | -0.00164 | 0.0773 | 0.115 | -0.0199 |
| CGAGCCC | 0.0259 | -0.0461 | 0.136 | 0.308 | 0.0228 | 0.22 | -0.142 | -0.00143 | -0.0766 | 0.000718 |
| CACGGCC | -0.0279 | -0.092 | -0.213 | -0.0143 | 0.0267 | -0.561 | -0.0742 | -0.123 | -0.119 | -0.134 |
| AGCATGT | -0.0593 | 0.0623 | 0.0517 | 0.405 | -0.065 | 0.925 | -0.0677 | 0.0273 | -0.039 | 0.0142 |
| ACGACCC | -0.15 | 0.0391 | 0.157 | 0.602 | 0.115 | 0.55 | 0.0801 | 0.112 | 0.0445 | 0.0792 |
| CGATGCT | -1 | 0.00857 | -0.477 | -1.15 | 0.043 | -0.983 | -1.35 | -0.135 | 0.12 | -0.0637 |
| TACACAC | 0.0517 | -0.0246 | -0.0522 | -0.764 | 0.0372 | -0.746 | -0.0173 | -0.1 | -0.0322 | -0.0489 |
| GCGAGCT | 0.0668 | 0.00141 | 0.111 | 0.367 | 0.075 | 0.395 | -0.0602 | 0.0476 | 0.0412 | 0.0142 |
| GGTGCAT | -0.0399 | 0.0974 | 0.847 | 1.99 | 0.0758 | 2.28 | 0.182 | -0.0839 | 0.0193 | 0.182 |
| AAAGGGG | 0.13 | 0.0931 | 0.365 | 0.996 | 0.0866 | 0.684 | 0.357 | 0.217 | 0.073 | 0.201 |
| GTTAAAC | 0.0392 | 0.1 | 0.336 | 0.827 | -0.0154 | 1.59 | -0.0382 | 0.0756 | 0.0802 | 0.0825 |
| TGCCGAA | 0.115 | -0.00199 | 0.146 | -0.096 | -0.0914 | -0.402 | 0.0769 | 0.0836 | -0.0978 | 0.053 |
| AGCGCCA | -0.0434 | 0.109 | 0.16 | 0.477 | -0.0924 | 1.28 | -0.0166 | 0.116 | 0.0278 | 0.147 |
| TCATTAT | -0.714 | -0.0844 | -0.492 | -1.91 | 0.0831 | -0.753 | -1.03 | 0.0722 | 0.143 | 0.0161 |
| CACAATA | -0.109 | -0.194 | -0.339 | -2.97 | -0.0205 | -0.738 | -0.241 | 0.0502 | -0.263 | -0.0772 |
| CTAGTTA | -0.123 | 0.109 | -0.0541 | -1.29 | -0.0526 | -0.481 | -0.132 | -0.0073 | -0.0626 | -0.00843 |
| TACTCAA | -0.0128 | 0.147 | 0.108 | -1.06 | 0.0565 | -0.36 | -1.17 | 0.165 | 0.173 | 0.173 |
| TGCTAGT | -1.06 | -0.104 | -0.23 | -0.377 | 0.0449 | -0.808 | -2.84 | 0.0459 | 0.145 | -0.0197 |
| TGAACGT | 0.132 | 0.178 | 0.158 | 0.151 | 0.123 | -0.0955 | 0.214 | -0.00978 | 0.225 | 0.219 |
| TGCTTCG | 0.101 | -0.0828 | -0.971 | -0.214 | 0.104 | -1.02 | 0.0836 | -0.272 | -0.111 | -0.156 |
| AGAGATG | -0.0127 | -0.049 | 0.0121 | 0.684 | -0.0495 | 1.62 | 0.133 | 0.0459 | -0.173 | -0.0087 |
| GTGGGGG | 0.161 | 0.00947 | 0.341 | 0.68 | 0.0184 | 0.73 | 0.146 | 0.103 | -0.0727 | -0.063 |
| TCTTATG | -0.0195 | -0.166 | -0.369 | -0.559 | -0.0514 | -1.06 | -0.163 | -0.0186 | 0.0812 | -0.217 |
